Experimental data from a collection of fitness landscapes (doi:10.1126/science.1257360).
The list shows a part of the results.

B1: PhoQ; a variant is named by its letters at X, in order, P23837 (parent)
chain: MKKLLRLFFPLSLRVRFLLATAAVVLVLSLAYGMVALIGYSVSFDKTTFRLLRGESNLFYTLAKWENNKLHVELPENIDKQSPTMTLIYDENGQLLWAQRDVPWLMKMIQPDWLKSNGFHEIEADVNDTSLLLSGDHSIQQQLQEVREDDDDAEMTHSVAVNVYPATSRMPKLTIVVVDTIPVELKSSYMVWSWFIYVLSANLLLVIPLLWVAAWWSLRPIEALAKEVRELEEHNRELLNPATTRELTSLVRNLNRLLKSERERYDKYRTTLTDLTHSLKTPLXXLQXXLRSLRSEKMSVSDAEPVMLEQISRISQQIGYYLHRASMRGGTLLSRELHPVAPLLDNLTSALNKVYQRKGVNISLDISPEISFVGEQNDFVEVMGNVLDNACKYCLEFVEISARQTDEHLYIVVEDDGPGIPLSKREVIFDRGQRVDTLRPGQGVGLAVAREITEQYEGKIVAGESMLGGARMEVIFGRQHSAPKDE

Variants of: B1
Experiment: enrichment ratio after two sorts for PhoP signalling (ratio (wild type AVST 3.29)); higher = more functional
Settings: with PhoP (E. coli)

Variant | enrichment ratio
EVNY | ≤ 0.25
GITI | 5.68
VMYS | ≤ 0.25
ADQP | ≤ 0.25
VDPK | ≤ 0.25
AYCN | ≤ 0.25
VEYM | ≤ 0.25
RALY | ≤ 0.25
QRNN | ≤ 0.25
PYDK | ≤ 0.25
YYSW | ≤ 0.25
QAIC | ≤ 0.25
DGQF | ≤ 0.25
YNLF | ≤ 0.25
AQAL | 18.4
FAYD | ≤ 0.25
SVPC | 0.425
SRKG | ≤ 0.25
GSSR | ≤ 0.25
RHCN | ≤ 0.25
RCMQ | ≤ 0.25
HPGE | ≤ 0.25
YSMT | ≤ 0.25
HEGM | ≤ 0.25
MNPQ | ≤ 0.25
FNMP | ≤ 0.25

Variant | enrichment ratio
DPQD | ≤ 0.25
SGVH | 10.5
HYVC | ≤ 0.25
APDI | ≤ 0.25
DQHL | ≤ 0.25
VYWT | ≤ 0.25
ICDW | ≤ 0.25
IWDP | ≤ 0.25
LEHN | ≤ 0.25
TIAI | 11.7
IAVF | ≤ 0.25
HMNN | ≤ 0.25
WGML | ≤ 0.25
AWGL | ≤ 0.25
PMQT | ≤ 0.25
DKTR | ≤ 0.25
RDHD | ≤ 0.25
KVGG | ≤ 0.25
GMDK | ≤ 0.25
TDFW | ≤ 0.25
HHFM | ≤ 0.25
FFLG | ≤ 0.25
PCHE | ≤ 0.25
NNKM | 6.75
ANVP | ≤ 0.25
EKMN | ≤ 0.25

Variant | enrichment ratio
VAIT | ≤ 0.25
VETK | ≤ 0.25
HGTD | ≤ 0.25
FFTP | ≤ 0.25
CLFF | ≤ 0.25
IYPR | ≤ 0.25
GYSF | ≤ 0.25
MMAW | ≤ 0.25
GYPK | ≤ 0.25
MVHA | ≤ 0.25
QGRK | ≤ 0.25
HCCK | ≤ 0.25
EVLK | ≤ 0.25
NSLV | 2.78
DMCK | ≤ 0.25
YHQV | ≤ 0.25
ATFA | ≤ 0.25
AIFE | ≤ 0.25
LSMC | ≤ 0.25
RAWP | ≤ 0.25
LVAY | ≤ 0.25
GCRC | ≤ 0.25
GNQR | ≤ 0.25
PWTP | ≤ 0.25
WNLC | ≤ 0.25
RHEA | ≤ 0.25

Variant | enrichment ratio
VVMI | ≤ 0.25
TLQM | 15.4
KEVR | ≤ 0.25
MNKR | ≤ 0.25
MCNH | 0.253
PCHN | ≤ 0.25
EYIN | ≤ 0.25
SGQD | ≤ 0.25
PVKM | ≤ 0.25
FWVM | ≤ 0.25
KVRH | ≤ 0.25
PSDP | ≤ 0.25
GNKG | ≤ 0.25
AAFS | ≤ 0.25
QFMG | ≤ 0.25
NDIH | ≤ 0.25
NFHQ | ≤ 0.25
NGEK | ≤ 0.25
KDMK | ≤ 0.25
SGGP | ≤ 0.25
SPAN | ≤ 0.25
YLYA | ≤ 0.25
TACY | 6.15
PGMW | ≤ 0.25
WHTF | ≤ 0.25
QLWI | ≤ 0.25

Variant | enrichment ratio
NWTT | ≤ 0.25
NEFT | ≤ 0.25
DHWA | ≤ 0.25
WIHF | ≤ 0.25
GIHT | ≤ 0.25
ENKY | ≤ 0.25
GVCR | 7.8
AYSF | ≤ 0.25
PFNI | ≤ 0.25
KFFC | ≤ 0.25
THSQ | 1.73
YTPF | ≤ 0.25
NIYM | ≤ 0.25
CILL | ≤ 0.25
SYQD | ≤ 0.25
SPTP | ≤ 0.25
PNVW | ≤ 0.25
LQWF | ≤ 0.25
IQCC | ≤ 0.25
DYYI | ≤ 0.25
WINC | ≤ 0.25
NRQQ | ≤ 0.25
QWFL | ≤ 0.25
SYKN | ≤ 0.25
SSYV | 1.11
PEFW | ≤ 0.25

Variant | enrichment ratio
VWGH | ≤ 0.25
YFRR | 0.949
VNAE | ≤ 0.25
VIFK | ≤ 0.25
VRWN | ≤ 0.25
IHGW | ≤ 0.25
FTPR | ≤ 0.25
VSHP | ≤ 0.25
ILNN | ≤ 0.25
LDDA | ≤ 0.25
RVGH | ≤ 0.25
EGCR | ≤ 0.25
FTRC | ≤ 0.25
VCNS | ≤ 0.25
YSNM | ≤ 0.25
QWPI | ≤ 0.25
KVTC | ≤ 0.25
WPEI | ≤ 0.25
GMED | ≤ 0.25
VHVV | ≤ 0.25
LQDP | ≤ 0.25
NWAA | ≤ 0.25
KDGH | ≤ 0.25
